From the supplement of paper PMC3334620
Whole data set: some 33,000 sequences, median “E-score (-0.5 to 0.5)” near -0.054, cut for the highest 2% near 0.35. The list shows a part of the results.

Each sequence was assayed against T1, Stb5 (UniProt P38699) (assay: PBM E-score (8-mer binding enrichment) (E-score (-0.5 to 0.5)); higher = stronger / more preferred TF binding; most listed sequences are background and not binding sites). Details: protein concentration: 200 nM; construct: GST-full length.
T1 sequence: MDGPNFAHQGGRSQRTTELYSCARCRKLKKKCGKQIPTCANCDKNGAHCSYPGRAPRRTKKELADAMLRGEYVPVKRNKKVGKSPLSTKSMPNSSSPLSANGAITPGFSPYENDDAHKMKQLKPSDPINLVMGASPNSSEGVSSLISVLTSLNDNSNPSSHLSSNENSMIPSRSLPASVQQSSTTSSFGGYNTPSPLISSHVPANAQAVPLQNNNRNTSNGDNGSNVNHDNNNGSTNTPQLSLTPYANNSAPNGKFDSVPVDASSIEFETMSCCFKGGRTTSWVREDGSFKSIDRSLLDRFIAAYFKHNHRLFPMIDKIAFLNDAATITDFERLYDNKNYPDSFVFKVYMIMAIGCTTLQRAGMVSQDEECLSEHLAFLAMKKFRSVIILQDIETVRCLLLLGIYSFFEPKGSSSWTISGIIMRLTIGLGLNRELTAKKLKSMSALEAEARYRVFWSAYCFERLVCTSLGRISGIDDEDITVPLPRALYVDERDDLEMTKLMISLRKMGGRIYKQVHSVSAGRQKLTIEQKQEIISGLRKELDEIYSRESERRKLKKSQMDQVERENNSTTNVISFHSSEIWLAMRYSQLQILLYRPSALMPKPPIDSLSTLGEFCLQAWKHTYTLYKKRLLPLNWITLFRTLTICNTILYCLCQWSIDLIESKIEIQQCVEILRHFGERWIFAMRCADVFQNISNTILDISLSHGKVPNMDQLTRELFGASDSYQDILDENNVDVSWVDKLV
Outline: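 Masliner-normalised scans of fluorescent anti-GST signal were the basis for scoring. That signal came from GST-tagged yeast transcription factors applied at about 100-200 nM to double-stranded universal all-10-mer Agilent arrays on fresh or once-stripped slides. Each ungapped eight-base word, pooled with its reverse complement, received an E-score from the Universal PBM Analysis Suite.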

First: CCGGCATA
Second: CTTTAGAC
The “PBM E-score” value of the first is higher: 0.245 for the first, -0.154 for the second.

Compared with GTCTATTA, CACCCGTG is lower in “PBM E-score” value: 0.00744 for the first, -0.105 for the second.

Going from CGTGGTTC to AATTCCCC, the “PBM E-score” value rises from 0.0327 to 0.182.

Going from TCCTGTCA to CTAGGAAG, the “PBM E-score” value falls from -0.0975 to -0.298.

Going from AAGTTCGC to ACTGCCCC, the “PBM E-score” value rises from -0.248 to -0.19.

Compared with GGAATGAA, AAGTACAT is lower in “PBM E-score” value: 0.101 for the first, -0.17 for the second.

Compared with TCAGTAGA, ACGCCGTC is higher in “PBM E-score” value: -0.121 for the first, 0.405 for the second.

First: ACTAATGC
Second: AAGAACTG
The “PBM E-score” value of the first is higher: 0.051 for the first, -0.225 for the second.

First: AGCCTGAT
Second: ATACGCAC
The “PBM E-score” value of the first is higher: -0.0692 for the first, -0.129 for the second.

First: ATCGTCCA
Second: GGCGTCGA
The “PBM E-score” value of the first is lower: -0.0552 for the first, 0.0581 for the second.

Going from CCGACCTC to TGTGGGAA, the “PBM E-score” value falls from 0.229 to -0.16.

Going from CTCAGACA to AATCATTG, the “PBM E-score” value falls from -0.0761 to -0.314.

Compared with AGCTACTC, GCTACATA is higher in “PBM E-score” value: -0.214 for the first, -0.0356 for the second.

First: CCACGACC
Second: CGGTCATC
The “PBM E-score” value of the first is lower: -0.07 for the first, 0.135 for the second.

Going from AGCCACTA to AAAATGGG, the “PBM E-score” value rises from -0.124 to -0.11.

Going from CACATTAC to AGCTCGGC, the “PBM E-score” value rises from 0.0555 to 0.114.

Going from CACTATAG to GAGAAGGA, the “PBM E-score” value falls from -0.0425 to -0.258.

Compared with ATATCCTA, ACGTGCGG is higher in “PBM E-score” value: 0.0864 for the first, 0.288 for the second.

Compared with CTCTTCTA, GGATTTAC is higher in “PBM E-score” value: -0.157 for the first, 0.322 for the second.

Compared with CCCCACGG, GAATCTCA is lower in “PBM E-score” value: 0.209 for the first, -0.131 for the second.

Compared with CTCAGATC, GAAGGTAA is higher in “PBM E-score” value: -0.106 for the first, 0.102 for the second.

Compared with CCAAAACG, CCACAGGA is higher in “PBM E-score” value: -0.139 for the first, 0.0259 for the second.

Compared with AAGAGCCC, TACACCAA is lower in “PBM E-score” value: 0.191 for the first, -0.128 for the second.

Going from AATAGTCT to TCGCAGAA, the “PBM E-score” value falls from -0.132 to -0.151.

Compared with AGGCCACT, ACAGTTTC is higher in “PBM E-score” value: -0.189 for the first, -0.155 for the second.

First: ATGTCGGC
Second: TACCAAGA
The “PBM E-score” value of the first is higher: 0.228 for the first, 0.0547 for the second.

Compared with AACTGCCC, CCCCAGCA is higher in “PBM E-score” value: -0.11 for the first, -0.103 for the second.

Compared with GCAGTTGA, CACCCGAC is higher in “PBM E-score” value: -0.177 for the first, 0.175 for the second.

Going from CTGGCGTC to AAGCGCCA, the “PBM E-score” value rises from -0.17 to -0.0397.

Going from CCTTTTCA to ATTCCCTA, the “PBM E-score” value rises from -0.0922 to 0.0201.

First: AGTCCAAA
Second: ATTGTTGC
The “PBM E-score” value of the first is lower: -0.127 for the first, -0.0776 for the second.

Compared with ACTTCAAT, AAGCTCCC is lower in “PBM E-score” value: -0.0301 for the first, -0.218 for the second.

First: GGTTATGA
Second: CAGGCTCA
The “PBM E-score” value of the first is higher: -0.156 for the first, -0.382 for the second.

First: GGTGATCA
Second: GGCTAAGA
The “PBM E-score” value of the first is higher: 0.0514 for the first, -0.00102 for the second.

Compared with AACCAGTT, AGCGCCGG is higher in “PBM E-score” value: -0.195 for the first, 0.376 for the second.

Compared with AGACATTG, ACGGAGTA is higher in “PBM E-score” value: -0.319 for the first, 0.224 for the second.

First: TACTGAAA
Second: GCCCCGAC
The “PBM E-score” value of the first is lower: 0.0281 for the first, 0.371 for the second.

Compared with CGTACACC, ACGCGCGT is lower in “PBM E-score” value: 0.217 for the first, -0.126 for the second.

Going from AAAGGGCT to AGCCTCGG, the “PBM E-score” value rises from -0.124 to 0.0711.

First: AGATGTCA
Second: ACGTACAC
The “PBM E-score” value of the first is higher: 0.00393 for the first, -0.132 for the second.

First: TATTATAA
Second: AGCCATAG
The “PBM E-score” value of the first is higher: 0.142 for the first, -0.371 for the second.

First: AGTGGTGA
Second: CCGGACGC
The “PBM E-score” value of the first is lower: 0.102 for the first, 0.286 for the second.

Going from ACAAAACA to ATGTAGTG, the “PBM E-score” value falls from -0.184 to -0.244.

Going from CTCACAGA to GTTATAAA, the “PBM E-score” value rises from -0.314 to 0.21.

Going from GTTAGTAA to AAGACTTG, the “PBM E-score” value falls from -0.134 to -0.158.

Compared with AGTTGCAG, ACTTGATA is higher in “PBM E-score” value: -0.175 for the first, 0.00748 for the second.

First: CTGCGCCC
Second: CGATTGCG
The “PBM E-score” value of the first is lower: -0.0749 for the first, 0.106 for the second.
